Laboratory results from the supplement of paper PMC8728848.
This is one part of the list.

Columns and labels:
Assay in all cases: glycan array binding signal (z-score within array); higher = stronger binding
Details in all cases: glycan notation: IUPAC condensed, linker removed
[1] = target: Man(a1-2)Man(a1-3)[Man(a1-2)Man(a1-6)]Man(a1-6)[Man(a1-2)Man(a1-2)Man(a1-3)]Man(b1-4)GlcNAc(b1-4)GlcNAc
How it was run: (§1)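 From the Consortium for Functional Glycomics database, 3228 arrays were curated, keeping only those whose protein sequence was available. Binding is given as a within-array Z-score averaged across arrays sharing a protein sequence and across linkers. Negative Z-scores can be read as non-binding.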

[2] = target: Man(a1-2)Man(a1-3)[Man(a1-6)]Man(a1-6)[Man(a1-2)Man(a1-3)]Man(b1-4)GlcNAc(b1-4)GlcNAc
How it was run: as §1

[3] = target: Man(a1-2)Man(a1-6)[Man(a1-3)]Man(a1-6)[Man(a1-2)Man(a1-2)Man(a1-3)]Man
How it was run: as §1

[4] = target: Man(a1-2)Man(a1-6)[Man(a1-3)]Man(a1-6)[Man(a1-2)Man(a1-2)Man(a1-3)]Man(b1-4)GlcNAc(b1-4)GlcNAc
How it was run: as §1

Man(a1-3)[Man(a1-6)]Man = target: Man(a1-3)[Man(a1-6)]Man
How it was run: as §1

[5] = target: Man(a1-3)[Man(a1-6)]Man(a1-6)[Man(a1-2)Man(a1-3)]Man(b1-4)GlcNAc(b1-4)GlcNAc
How it was run: as §1

[6] = target: Man(a1-3)[Man(a1-6)]Man(a1-6)[Man(a1-3)]Man
How it was run: as §1

[7] = target: Man(a1-3)[Man(a1-6)]Man(a1-6)[Man(a1-3)]Man(b1-4)GlcNAc(b1-4)GlcNAc
How it was run: as §1

[8] = target: Man(a1-3)[Man(a1-6)]Man(b1-4)GlcNAc(b1-4)GlcNAc
How it was run: as §1

[9] = target: Man(a1-3)[Man(a1-6)]Man(b1-4)GlcNAc(b1-4)[Fuc(a1-6)]GlcNAc
How it was run: as §1

Man(a1-6)Man = target: Man(a1-6)Man
How it was run: as §1

Man(b1-4)GlcNAc = target: Man(b1-4)GlcNAc
How it was run: as §1

Neu5Ac(a2-3)Gal = target: Neu5Ac(a2-3)Gal
How it was run: as §1

[10] = target: Neu5Ac(a2-3)Gal(b1-3)GalNAc
How it was run: as §1

[11] = target: Neu5Ac(a2-3)Gal(b1-3)GalNAc(b1-3)Gal(a1-4)Gal(b1-4)Glc
How it was run: as §1

[12] = target: Neu5Ac(a2-3)Gal(b1-3)GalNAc(b1-4)[Neu5Ac(a2-3)]Gal(b1-4)Glc
How it was run: as §1

[13] = target: Neu5Ac(a2-3)Gal(b1-3)GalNAc(b1-4)[Neu5Ac(a2-8)Neu5Ac(a2-3)]Gal(b1-4)Glc
How it was run: as §1

[14] = target: Neu5Ac(a2-3)Gal(b1-3)GalNAc6S
How it was run: as §1

[15] = target: Neu5Ac(a2-3)Gal(b1-3)GlcNAc
How it was run: as §1

[16] = target: Neu5Ac(a2-3)Gal(b1-3)GlcNAc(b1-2)Man(a1-3)[GlcNAc(b1-4)][Neu5Ac(a2-3)Gal(b1-3)GlcNAc(b1-2)Man(a1-6)]Man(b1-4)GlcNAc(b1-4)GlcNAc
How it was run: as §1

[17] = target: Neu5Ac(a2-3)Gal(b1-3)GlcNAc(b1-3)Gal(b1-3)GlcNAc
How it was run: as §1

[18] = target: Neu5Ac(a2-3)Gal(b1-3)GlcNAc(b1-3)Gal(b1-4)GlcNAc
How it was run: as §1

[19] = target: Neu5Ac(a2-3)Gal(b1-3)GlcNAc(b1-3)GalNAc
How it was run: as §1

[20] = target: Neu5Ac(a2-3)Gal(b1-3)GlcNAc(b1-6)GalNAc
How it was run: as §1

[21] = target: Neu5Ac(a2-3)Gal(b1-3)GlcNAc6S
How it was run: as §1

[22] = target: Neu5Ac(a2-3)Gal(b1-3)[Fuc(a1-4)]GlcNAc
How it was run: as §1

[23] = target: Neu5Ac(a2-3)Gal(b1-3)[Fuc(a1-4)]GlcNAc(b1-3)Gal(b1-3)[Fuc(a1-4)]GlcNAc
How it was run: as §1

[24] = target: Neu5Ac(a2-3)Gal(b1-3)[Fuc(a1-4)]GlcNAc(b1-3)Gal(b1-4)[Fuc(a1-3)]GlcNAc
How it was run: as §1

[25] = target: Neu5Ac(a2-3)Gal(b1-3)[Neu5Ac(a2-3)Gal(b1-4)]GlcNAc
How it was run: as §1

[26] = target: Neu5Ac(a2-3)Gal(b1-3)[Neu5Ac(a2-6)]GalNAc
How it was run: as §1

B1: PRKCE (Homo sapiens), Q02156 (protein)
chain: MVVFNGLLKIKICEAVSLKPTAWSLRHAVGPRPQTFLLDPYIALNVDDSRIGQTATKQKTNSPAWHDEFVTDVCNGRKIELAVFHDAPIGYDDFVANCTIQFEELLQNGSRHFEDWIDLEPEGRVYVIIDLSGSSGEAPKDNEERVFRERMRPRKRQGAVRRRVHQVNGHKFMATYLRQPTYCSHCRDFIWGVIGKQGYQCQVCTCVVHKRCHELIITKCAGLKKQETPDQVGSQRFSVNMPHKFGIHNYKVPTFCDHCGSLLWGLLRQGLQCKVCKMNVHRRCETNVAPNCGVDARGIAKVLADLGVTPDKITNSGQRRKKLIAGAESPQPASGSSPSEEDRSKSAPTSPCDQEIKELENNIRKALSFDNRGEEHRAASSPDGQLMSPGENGEVRQGQAKRLGLDEFNFIKVLGKGSFGKVMLAELKGKDEVYAVKVLKKDVILQDDDVDCTMTEKRILALARKHPYLTQLYCCFQTKDRLFFVMEYVNGGDLMFQIQRSRKFDEPRSRFYAAEVTSALMFLHQHGVIYRDLKLDNILLDAEGHCKLADFGMCKEGILNGVTTTTFCGTPDYIAPEILQELEYGPSVDWWALGVLMYEMMAGQPPFEADNEDDLFESILHDDVLYPVWLSKEAVSILKAFMTKNPHKRLGCVASQNGEDAIKQHPFFKEIDWVLLEQKKIKPPFKPRIKTKRDVNNFDQDFTREEPVLTLVDEAIVKQINQEEFKGFSYFGEDLMP
- glycan array binding signal (z-score) [1]: 0.322
- glycan array binding signal (z-score) [2]: -0.026
- glycan array binding signal (z-score) [3]: -0.29
- glycan array binding signal (z-score) [4]: -0.361
- glycan array binding signal (z-score) (Man(a1-3)[Man(a1-6)]Man): -0.374
- glycan array binding signal (z-score) [5]: -0.333
- glycan array binding signal (z-score) [6]: -0.076
- glycan array binding signal (z-score) [7]: -0.385
- glycan array binding signal (z-score) [8]: -0.361
- glycan array binding signal (z-score) [9]: -0.239
- glycan array binding signal (z-score) (Man(a1-6)Man): -0.269
- glycan array binding signal (z-score) (Man(b1-4)GlcNAc): -0.416
- glycan array binding signal (z-score) (Neu5Ac(a2-3)Gal): -0.388
- glycan array binding signal (z-score) [10]: 0.424
- glycan array binding signal (z-score) [11]: -0.113
- glycan array binding signal (z-score) [12]: -0.179
- glycan array binding signal (z-score) [13]: -0.213
- glycan array binding signal (z-score) [14]: -0.364
- glycan array binding signal (z-score) [15]: -0.306
- glycan array binding signal (z-score) [16]: -0.424
- glycan array binding signal (z-score) [17]: 0.144
- glycan array binding signal (z-score) [18]: -0.349
- glycan array binding signal (z-score) [19]: 1.98
- glycan array binding signal (z-score) [20]: 0.17
- glycan array binding signal (z-score) [21]: 0.48
- glycan array binding signal (z-score) [22]: -0.277
- glycan array binding signal (z-score) [23]: -0.349
- glycan array binding signal (z-score) [24]: -0.386
- glycan array binding signal (z-score) [25]: -0.429
- glycan array binding signal (z-score) [26]: 0.973
